Patent publication US8362216B2, “Method of detection using antibodies that specifically bind hedgehog-derived polypeptides” (The Johns Hopkins University School of Medicine, priority 1994, dated 2013)

Tested on: cell fates in the dorsal cuticle
Assay: Patterning of larval dorsal cuticle after heat shock
Details: heat shock induction of embryos

B1: hshh H329A: heat shock-inducible hh with H329A mutation blocking auto-proteolysis (protein)
chain: CGPGRGLGRHRARNLYPLVLKQTIPNLSEYTNSASGPLEGVIRRDSPKFKDLVPNYNRDILFRDEEGTGADRLMSKRCKEKLNVLAYSVMNEWPGIRLLVTESWDEDYHHGQESLHYEGRAVTIATSDRDQSKYGMLARLAVEAGFDWVSYVSRRHIYCSVKSDSSISSHVHGCFTPESTALLESGVRKPLGELSIGDRVLSMTANGQAVYSEVILFMDRNLEQMQNFVQLHTDGGAVLTVTPAALVSVWQPESQKLTFVFADRIEEKNQVLVRDVETGELRPQRVVKVGSVRSKGVVAPLTREGTIVVNSVAASCYAVINSQSLAHWGLAPMRLLSTLEAWLPAKEQLHSSPKVVSSAQQQNGIHWYANALYKVKDYVLPQSWRHD
Alteration of cell fates in the dorsal cuticle of the larva: unable to alter cell fates in the dorsal cuticle of the larva
